Out of some 420,000 compounds screened, about 50,000 (12%) were called active. The shares of active, inactive and inconclusive entries below differ from those in the screen. The call rests on the fitted dose curve; in most records, active means well fitted inhibition curve with a large enough effect; inconclusive means small, poorly fitted or top-dose-only effect; inactive means flat fitted curve, though single readings scatter. Potencies of inconclusive entries are left out as doubtful fits.
Experiment: qHTS for Inhibitors of human tyrosyl-DNA phosphodiesterase 1 (TDP1): qHTS in cells in presence of CPT; further: nearly all actives have a fitted effect of over 55% in size
Conditions: chicken DT40 Tdp1-/-;hTDP1 cells + 20 nM CPT, ATP luminescence, 48 h; activity change, negative = growth inhibition: at 46.2 µM (top of the series) unless noted
In short: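 Chicken DT40 Tdp1-/- cells complemented with human TDP1, 400 cells/well, exposed to compounds plus 20 nM camptothecin for at least 48 h at 37 C; viability read as ATP content by CellTiter-Glo luminescence.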
On the % scale 0 is the no-effect control and ±100 the full control effect; potency means the concentration at half of the fitted maximal effect; tags describe the fitted curve by direction and shape.

| Compound | Potency | activity change, negative = growth inhibition |
| --- | --- | --- |
| CCOC(=O)c1csc(NC(=O)CSc2nnnn2-c2ccc(OC)cc2)n1 | inconclusive [inhibitor, single point] |  |
| O=C(CCCN1CCc2[nH]c3ccc(F)cc3c2C1)c1ccc(F)cc1 | inconclusive [inhibitor, single point] |  |
| Cc1nn(-c2cccc(Cl)c2)c2nc(-c3ccco3)cc(C(=O)O)c12 |  | inactive: -21.1% |
| C[C@@]12C(=O)Nc3cc(F)ccc3C(=O)N1[C@H]1c3cc(Br)ccc3OC[C@@H]1[C@@H]2c1ccccc1 | inconclusive [inhibitor, single point] |  |
| O=C1C(=O)N(CCCN2CCOCC2)C(c2ccc(Cl)cc2)/C1=C(\O)c1ccc2c(c1)OCCO2 (stereo unspecified) | inconclusive [inhibitor, single point] |  |
| O=C(Cn1cnc2c(cnn2-c2ccc(F)cc2)c1=O)NCCc1ccccc1 |  | inactive: -16.9% |
| CCN(CC)S(=O)(=O)c1ccc(OC)c(NC(=O)CSc2ccccc2)c1 |  | inactive: -29.7% |
| O=C1C[C@@H]2CCN3C(=O)CCC[C@@H]([C@H]23)[C@@H]1Cc1ccccc1 |  | inactive: -3.09% |
| COc1ccccc1-c1n[nH]nc1C1=CC(=O)C[C@H](c2ccc(F)cc2)C1 | inconclusive [inhibitor, single point] |  |
| Cn1cccc1Cc1nnc(SCC(=O)NCCc2ccccc2)n1-c1ccc(F)cc1 | inconclusive [inhibitor, single point] |  |
| COc1cc(CNc2ccc3[nH]c(=O)[nH]c3c2)ccc1OCC(=O)NC(C)(C)C | inconclusive [inhibitor, single point] |  |
| Cc1ccc(-c2ocnc2C(=O)Nc2ccccc2NC(=O)c2ccccn2)cc1 | active: 20.6 µM |  |
| O=C(NC1CCN(C(=O)NCc2ccccc2)CC1)c1ccco1 |  | inactive: 11.5% |
| O=C(NC1CCCCCC1)c1c(O)nc2sccn2c1=O | active: 16.4 µM |  |
| Cc1ccc(CC2CC(=O)N(c3ncccn3)C2=O)cc1 (stereo unspecified) |  | inactive: 9.21% |
| Cc1ccc(Cc2nc3ccccc3nc2SCC(=O)N2CCCCC2)cc1 | inconclusive [inhibitor, single point] |  |
| CCOc1ccccc1NC(=O)c1c(NCc2ccc(C)o2)sc2c1CCCCC2 | active: 4.61 µM |  |
| Cc1ccc(C(=O)Nc2cccc(C(=O)N/N=C/c3ccc(F)cc3)c2)cc1 | inconclusive [inhibitor, single point] |  |
| c1ccc(Nc2ccccn2)cc1 | inconclusive [inhibitor, single point] |  |
| CCCOc1ccc(C2=CSC3=NCCN23)cc1 |  | inactive: 0.155% |
| O=C(O)C1C2C=CC(C2)C1C(=O)NCCC1=CCCCC1 (stereo unspecified) |  | inactive: 4.76% |
| O=C(NC(=S)N1CCOCC1)c1ccccc1Cl |  | inactive: -9.57% |
| Nc1cccc(C2=Nc3cccc4cccc(c34)N2)c1 | inconclusive [inhibitor, single point] |  |

| Compound | Potency | activity change, negative = growth inhibition |
| --- | --- | --- |
| O=c1oc2c(F)cc(F)cc2cc1S(=O)(=O)c1ccc(F)cc1 |  | inactive: -16.9% |
| CC1=C(C(=O)OCCOC(C)C)C(c2cc3c(cc2Br)OCO3)CC(=O)N1 (stereo unspecified) | active: 16.4 µM |  |
| Cc1cc(O)ccc1Nc1nc2ccccc2nc1Nc1ccc(O)cc1C | active: 8.2 µM |  |
| CN(c1ccccc1)S(=O)(=O)c1cccc(C(=O)NCC(=O)Nc2ccc(F)c(F)c2F)c1 | inconclusive [inhibitor, single point] |  |
| O=C(NCc1ccco1)c1cnn2c(C(F)(F)F)cc(-c3ccco3)nc12 | inconclusive [inhibitor, single point] |  |
| O=C(CCCc1ccccc1)N1CCN(C2CCCCC2)CC1 | inconclusive [inhibitor, partial curve] |  |
| COc1ccccc1CNc1ncnc2ccc(-c3cccc(NS(C)(=O)=O)c3)cc12 | active: 1.64 µM |  |
| Cc1sc(N/N=C/c2ccco2)nc1-c1ccccc1 | inconclusive [inhibitor, partial curve] |  |
| CCn1c(SCC(=O)N/N=C/c2cc(OC)c(OC)c(OC)c2)nc2ccccc21 | inconclusive [inhibitor, single point] |  |
| CC1CCN(CC(O)COc2ccc(C(=O)c3ccccc3)cc2)CC1 (stereo unspecified) |  | inactive: -26.9% |
| CC(=O)CCc1ccc(OCCCOc2cccc3cccnc23)cc1 | inconclusive [inhibitor, single point] |  |
| CCOc1ccc(CN2CCN(S(=O)(=O)c3ccc(Cl)cc3)CC2)cc1 | inconclusive [inhibitor, single point] |  |
| CCc1cccc(NC(=O)Cn2ncn3c(cc4ccccc43)c2=O)c1 | inconclusive [inhibitor, partial curve] |  |
| CCOC(=O)[C@]12CCCC=C1N(Cc1cccc3ccccc13)C(=O)[C@H](CC(=O)N1CCC(c3ccccc3)CC1)C2 | inconclusive [inhibitor, single point] |  |
| CCOc1ccc(N(CC)C(=O)c2cc3c(=O)oc4ccccc4c3s2)cc1 |  | inactive: -22.2% |
| COc1ccc(-c2nn(-c3ccccc3)cc2C(=O)NCCCn2ccnc2)cc1 | inconclusive [inhibitor, partial curve, poor fit] |  |
| Cc1ccc(C(=O)N/C(=C\c2ccccc2F)c2nc(=S)[nH][nH]2)cc1 | active: 20.6 µM |  |
| COc1ccc2[nH]cc(CCNc3ncnc4ccc(-c5ccccc5OC)cc34)c2c1 | inconclusive [inhibitor, single point] |  |
| CC(C)CNC(=S)NNC(=O)c1csc2c1CCCC2 | inconclusive [inhibitor, single point] |  |
| CCC1(c2ccccc2)NC(=O)N(CC(=O)N(C)CC(=O)Nc2cccc(F)c2)C1=O (stereo unspecified) |  | inactive: -21.3% |
| O=C1[C@H]2[C@@H](c3ccc(F)cc3)N3C(=O)N(c4ccccc4)C(=O)[C@@]3(Cc3ccc(Cl)cc3)[C@H]2C(=O)N1C1CCCCC1 | inconclusive [inhibitor, single point] |  |
| O=C(Cn1cc(S(=O)(=O)c2ccc(F)cc2)c(=O)c2cc3c(cc21)OCO3)Nc1ccccc1 |  | inactive: 3.02% |
| O=C(CCCCCn1c(=S)[nH]c2ccc(N3CCOCC3)cc2c1=O)NCc1ccc(Cl)cc1 | inconclusive [inhibitor, single point] |  |
